This passage reports binding results from article PMC3431376.

The chains behind the UniProt entries cited, without tags or fusion partners. Where a name states a change or a piece, a line headed by the entry shows the natural chain unless it says otherwise. Residues count along the entry.
UniProt Q14247: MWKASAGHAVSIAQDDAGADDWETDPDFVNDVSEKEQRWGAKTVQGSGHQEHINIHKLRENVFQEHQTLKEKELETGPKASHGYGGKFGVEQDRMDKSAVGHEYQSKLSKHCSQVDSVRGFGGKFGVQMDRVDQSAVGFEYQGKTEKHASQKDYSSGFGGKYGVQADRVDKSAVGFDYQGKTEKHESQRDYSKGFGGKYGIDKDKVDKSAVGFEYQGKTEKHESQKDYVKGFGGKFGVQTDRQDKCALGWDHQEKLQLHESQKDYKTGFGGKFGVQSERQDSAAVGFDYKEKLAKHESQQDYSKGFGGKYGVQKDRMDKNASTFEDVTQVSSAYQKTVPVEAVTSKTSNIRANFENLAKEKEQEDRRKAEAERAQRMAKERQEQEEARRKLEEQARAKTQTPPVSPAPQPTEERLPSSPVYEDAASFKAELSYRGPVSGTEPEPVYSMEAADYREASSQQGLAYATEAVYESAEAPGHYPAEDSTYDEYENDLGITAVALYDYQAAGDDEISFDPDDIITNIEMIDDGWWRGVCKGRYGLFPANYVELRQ
UniProt Q60598: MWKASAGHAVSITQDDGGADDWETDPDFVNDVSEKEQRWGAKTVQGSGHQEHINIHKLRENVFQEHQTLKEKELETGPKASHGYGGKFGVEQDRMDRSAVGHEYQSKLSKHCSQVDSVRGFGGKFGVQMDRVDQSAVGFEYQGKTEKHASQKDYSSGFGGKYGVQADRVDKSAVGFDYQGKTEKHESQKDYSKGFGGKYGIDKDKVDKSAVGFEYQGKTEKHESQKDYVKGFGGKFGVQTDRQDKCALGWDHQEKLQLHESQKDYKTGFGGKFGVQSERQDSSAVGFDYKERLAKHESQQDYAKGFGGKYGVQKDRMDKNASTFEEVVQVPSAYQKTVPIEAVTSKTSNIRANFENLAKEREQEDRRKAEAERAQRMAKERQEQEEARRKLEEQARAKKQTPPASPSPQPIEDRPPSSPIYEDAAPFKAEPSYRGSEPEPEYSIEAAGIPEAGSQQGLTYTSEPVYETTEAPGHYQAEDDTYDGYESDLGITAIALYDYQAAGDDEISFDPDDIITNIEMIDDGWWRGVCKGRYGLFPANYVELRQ
FLAG-cortactin carboxyl terminal (CT) (amino acids 350-546): residues 350-546 of Q60598
UniProt O54967: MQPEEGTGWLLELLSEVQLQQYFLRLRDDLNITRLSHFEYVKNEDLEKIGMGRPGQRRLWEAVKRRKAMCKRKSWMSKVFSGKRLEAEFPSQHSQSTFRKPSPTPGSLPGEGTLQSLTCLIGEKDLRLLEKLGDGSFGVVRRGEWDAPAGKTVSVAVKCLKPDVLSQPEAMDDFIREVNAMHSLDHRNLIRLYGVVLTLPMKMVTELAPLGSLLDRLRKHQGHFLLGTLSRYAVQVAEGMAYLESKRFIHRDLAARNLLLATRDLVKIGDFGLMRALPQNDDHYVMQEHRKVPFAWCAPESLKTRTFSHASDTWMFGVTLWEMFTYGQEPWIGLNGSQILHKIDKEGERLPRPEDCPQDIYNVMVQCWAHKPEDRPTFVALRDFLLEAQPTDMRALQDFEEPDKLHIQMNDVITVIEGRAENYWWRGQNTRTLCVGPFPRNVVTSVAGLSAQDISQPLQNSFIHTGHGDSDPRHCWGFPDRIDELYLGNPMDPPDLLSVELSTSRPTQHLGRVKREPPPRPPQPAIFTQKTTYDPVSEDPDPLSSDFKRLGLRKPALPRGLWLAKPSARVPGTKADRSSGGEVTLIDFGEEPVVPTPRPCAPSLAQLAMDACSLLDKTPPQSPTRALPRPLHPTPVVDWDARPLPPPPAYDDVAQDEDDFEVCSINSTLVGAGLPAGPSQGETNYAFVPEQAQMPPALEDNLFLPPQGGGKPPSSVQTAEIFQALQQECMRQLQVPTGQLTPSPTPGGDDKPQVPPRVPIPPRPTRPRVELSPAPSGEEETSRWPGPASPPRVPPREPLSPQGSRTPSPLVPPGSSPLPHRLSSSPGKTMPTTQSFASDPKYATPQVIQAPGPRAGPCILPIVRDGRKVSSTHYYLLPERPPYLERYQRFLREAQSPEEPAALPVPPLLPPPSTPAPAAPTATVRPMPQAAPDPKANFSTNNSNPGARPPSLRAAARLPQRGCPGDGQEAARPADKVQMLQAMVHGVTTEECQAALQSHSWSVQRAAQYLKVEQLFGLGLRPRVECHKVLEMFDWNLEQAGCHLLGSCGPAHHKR

These are yes or no findings as the source states them, for the method shown. Binding seen in cells or lysates may run through a third protein. Some binding calls cover weakened binding; strength is not graded here.

Test [1] addresses endogenous cortactin (human (endogenous in 1483 and 293T)) (UniProt Q14247). In words: co-IP; endogenous cortactin immunoprecipitated with anti-cortactin antibody and Protein A/G beads from lysates of 1483 cells transfected with Myc-ACK1; NP40 buffer (20 mM HEPES-KOH pH 7.8, 50 mM KCl, 1 mM EDTA, 1% NP40), 4°C; blot with anti-Myc.
The target is the same in test [2]. The test is described as follows: co-IP; 293T cells transfected with Myc-ACK1; Protein A/G beads bound to anti-cortactin antibody against beads alone; blot for ACK1 and cortactin.
The target of test [3] is FLAG-cortactin W525K (SH3-binding deficient) (murine) (UniProt Q60598). In words: co-IP; anti-FLAG M2 affinity gel on clarified lysates of 293T cells coexpressing Myc-ACK1 and FLAG-cortactin constructs; NP40 buffer, 4°C; blots with anti-ACK1 and anti-Myc.
The target of test [4] is FLAG-cortactin full length (FL) (murine) (UniProt Q60598). Described as above.
Test [5] concerns the target FLAG-cortactin carboxyl terminal (CT) (amino acids 350-546) (murine) (UniProt Q60598). The description is as above.

Regarding “Myc-tagged ACK1 (murine activated Cdc42-associated kinase 1) (from UniProt O54967 1-1055) (enzyme)”, the binding result in test [1] was “binds”; in test [2] it was “binds”; in test [3], “no binding”; in test [4] it was “binds”; in test [5], “binds”.
